Measurements reported in article PMC9911399, “Two distinct binding modes provide the RNA-binding protein RbFox with extraordinary sequence specificity”.
Changes are numbered by the printed parent chain; changes in the protein carry UniProt numbers. This is one part of the list.

B1: UGUGGAA (DNA:RNA)
RNA: GGGAGACCGGAAUUCAGAUUGUCCUGUGGAAUUAAAUCCCGUCGUAGCCACCA
DNA 1: CAATCTGAATTCCGGTCTCCC
DNA 2: TGGTGGCTACGACGGGATT
B2: GGAUGAA (DNA:RNA)
RNA: B1 RNA with U25G, U27A, G28U
DNA 1: CAATCTGAATTCCGGTCTCCC
DNA 2: TGGTGGCTACGACGGGATT
B3: GUCUGCU (DNA:RNA)
RNA: B1 RNA with U25G, G26U, U27C, G28U, A30C, A31U
DNA 1: CAATCTGAATTCCGGTCTCCC
DNA 2: TGGTGGCTACGACGGGATT
B4: CUCUUUA (DNA:RNA)
RNA: B1 RNA with U25C, G26U, U27C, G28U, G29U, A30U
DNA 1: CAATCTGAATTCCGGTCTCCC
DNA 2: TGGTGGCTACGACGGGATT
B5: CCUUCUA (DNA:RNA)
RNA: B1 RNA with U25C, G26C, G28U, G29C, A30U
DNA 1: CAATCTGAATTCCGGTCTCCC
DNA 2: TGGTGGCTACGACGGGATT
B6: UUCUUUA (DNA:RNA)
RNA: B1 RNA with G26U, U27C, G28U, G29U, A30U
DNA 1: CAATCTGAATTCCGGTCTCCC
DNA 2: TGGTGGCTACGACGGGATT
B7: UAUCAUG (DNA:RNA)
RNA: B1 RNA with G26A, G28C, G29A, A30U, A31G
DNA 1: CAATCTGAATTCCGGTCTCCC
DNA 2: TGGTGGCTACGACGGGATT
B8: GUUAUAU (DNA:RNA)
RNA: B1 RNA with U25G, G26U, G28A, G29U, A31U
DNA 1: CAATCTGAATTCCGGTCTCCC
DNA 2: TGGTGGCTACGACGGGATT
B9: CGUCAGU (DNA:RNA)
RNA: B1 RNA with U25C, G28C, G29A, A30G, A31U
DNA 1: CAATCTGAATTCCGGTCTCCC
DNA 2: TGGTGGCTACGACGGGATT
B10: CACCCGC (DNA:RNA)
RNA: GGGAGACCGGAAUUCAGAUUGUCCCACCCGCUUAAAUCCCGUCGUAGCCACCA
DNA 1: CAATCTGAATTCCGGTCTCCC
DNA 2: TGGTGGCTACGACGGGATT
B11: GUACUUA (DNA:RNA)
RNA: B10 RNA with C25G, A26U, C27A, C29U, G30U, C31A
DNA 1: CAATCTGAATTCCGGTCTCCC
DNA 2: TGGTGGCTACGACGGGATT
B12: CCACGAU (DNA:RNA)
RNA: B10 RNA with A26C, C27A, C29G, G30A, C31U
DNA 1: CAATCTGAATTCCGGTCTCCC
DNA 2: TGGTGGCTACGACGGGATT
B13: CACUCGA (DNA:RNA)
RNA: B10 RNA with C28U, C31A
DNA 1: CAATCTGAATTCCGGTCTCCC
DNA 2: TGGTGGCTACGACGGGATT
B14: UCUACCC (DNA:RNA)
RNA: B10 RNA with C25U, A26C, C27U, C28A, G30C
DNA 1: CAATCTGAATTCCGGTCTCCC
DNA 2: TGGTGGCTACGACGGGATT
B15: GGACUUA (DNA:RNA)
RNA: B1 RNA with U25G, U27A, G28C, G29U, A30U
DNA 1: CAATCTGAATTCCGGTCTCCC
DNA 2: TGGTGGCTACGACGGGATT
B16: GGGGAAA (DNA:RNA)
RNA: B1 RNA with U25G, U27G, G29A
DNA 1: CAATCTGAATTCCGGTCTCCC
DNA 2: TGGTGGCTACGACGGGATT
B17: GUGGAGU (DNA:RNA)
RNA: B10 RNA with C25G, A26U, C27G, C28G, C29A, C31U
DNA 1: CAATCTGAATTCCGGTCTCCC
DNA 2: TGGTGGCTACGACGGGATT
B18: UGCCGUU (DNA:RNA)
RNA: B1 RNA with U27C, G28C, A30U, A31U
DNA 1: CAATCTGAATTCCGGTCTCCC
DNA 2: TGGTGGCTACGACGGGATT
B19: GGAUAGG (DNA:RNA)
RNA: B10 RNA with C25G, A26G, C27A, C28U, C29A, C31G
DNA 1: CAATCTGAATTCCGGTCTCCC
DNA 2: TGGTGGCTACGACGGGATT
B20: ACAGGCC (DNA:RNA)
RNA: B1 RNA with U25A, G26C, U27A, A30C, A31C
DNA 1: CAATCTGAATTCCGGTCTCCC
DNA 2: TGGTGGCTACGACGGGATT
B21: UCGACUU (DNA:RNA)
RNA: B10 RNA with C25U, A26C, C27G, C28A, G30U, C31U
DNA 1: CAATCTGAATTCCGGTCTCCC
DNA 2: TGGTGGCTACGACGGGATT
B22: UCUCCAA (DNA:RNA)
RNA: B1 RNA with G26C, G28C, G29C
DNA 1: CAATCTGAATTCCGGTCTCCC
DNA 2: TGGTGGCTACGACGGGATT
B23: UGUCUGU (DNA:RNA)
RNA: B1 RNA with G28C, G29U, A30G, A31U
DNA 1: CAATCTGAATTCCGGTCTCCC
DNA 2: TGGTGGCTACGACGGGATT
B24: UGGGAUA (DNA:RNA)
RNA: B1 RNA with U27G, G29A, A30U
DNA 1: CAATCTGAATTCCGGTCTCCC
DNA 2: TGGTGGCTACGACGGGATT
B25: AUCAGUC (DNA:RNA)
RNA: B10 RNA with C25A, A26U, C28A, C29G, G30U
DNA 1: CAATCTGAATTCCGGTCTCCC
DNA 2: TGGTGGCTACGACGGGATT
B26: UGUCGAU (DNA:RNA)
RNA: B1 RNA with G28C, A31U
DNA 1: CAATCTGAATTCCGGTCTCCC
DNA 2: TGGTGGCTACGACGGGATT
B27: CGUUUUU (DNA:RNA)
RNA: B1 RNA with U25C, G28U, G29U, A30U, A31U
DNA 1: CAATCTGAATTCCGGTCTCCC
DNA 2: TGGTGGCTACGACGGGATT
B28: UCUUAAU (DNA:RNA)
RNA: B1 RNA with G26C, G28U, G29A, A31U
DNA 1: CAATCTGAATTCCGGTCTCCC
DNA 2: TGGTGGCTACGACGGGATT
B29: GGCGUUU (DNA:RNA)
RNA: B1 RNA with U25G, U27C, G29U, A30U, A31U
DNA 1: CAATCTGAATTCCGGTCTCCC
DNA 2: TGGTGGCTACGACGGGATT
B30: AGGGUGG (DNA:RNA)
RNA: B1 RNA with U25A, U27G, G29U, A30G, A31G
DNA 1: CAATCTGAATTCCGGTCTCCC
DNA 2: TGGTGGCTACGACGGGATT
B31: AUCAUUC (DNA:RNA)
RNA: B10 RNA with C25A, A26U, C28A, C29U, G30U
DNA 1: CAATCTGAATTCCGGTCTCCC
DNA 2: TGGTGGCTACGACGGGATT

These binders were tested against T1, RBFOX1 RRM (Homo sapiens, UniProt Q9NWB1 109-208) (assay: EMSA; HiTS-Eq, 1 nM pool, 10 min; buffer printed only for the single-RNA assays: 10 mM Tris pH 7.5, 150 mM NaCl, 3.4 mM EDTA, 0.001% NP-40, 30 C). Conditions: tags: His6 N-terminal (pET28a); label: 5' 32P.
T1 sequence: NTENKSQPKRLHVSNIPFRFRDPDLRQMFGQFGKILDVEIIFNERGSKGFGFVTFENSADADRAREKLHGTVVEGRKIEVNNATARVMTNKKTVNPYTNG
Summary of the method: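 These values rest on relative association constants, computed from read-count changes of each RNA species versus the control reaction and normalised to the cognate motif. Reads came from free RNA recovered by 8% native PAGE after purified RbFox RRM (wild type or mutant) at increasing concentrations was equilibrated for 10 min in 50 µL with 1 nM of a 5′-radiolabelled pool with 7 randomized nucleotides and DNA-annealed flanks.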
With B1 the binding signal was 0.011 KA relative to UGCAUGU.
In the case of B2, the binding signal is reported as 0.0174 KA relative to UGCAUGU.
In the case of B3, the binding signal is reported as 0.0263 KA relative to UGCAUGU.
With B4 the binding signal was 0.00317 KA relative to UGCAUGU.
With B5 the binding signal was 0.0036 KA relative to UGCAUGU.
With B6 the binding signal was 0.00687 KA relative to UGCAUGU.
With B7 the binding signal was 0.0146 KA relative to UGCAUGU.
For B8, the binding signal was 0.00265 KA relative to UGCAUGU.
In the case of B9, the binding signal is reported as 0.0114 KA relative to UGCAUGU.
B10 was tested, and the binding signal was 0.00257 KA relative to UGCAUGU.
For B11, the binding signal was 0.0033 KA relative to UGCAUGU.
With B12 the binding signal was 0.00218 KA relative to UGCAUGU.
B13 was tested, and the binding signal was 0.00262 KA relative to UGCAUGU.
With B14 the binding signal was 0.0044 KA relative to UGCAUGU.
B15 was tested, and the binding signal was 0.00774 KA relative to UGCAUGU.
In the case of B16, the binding signal is reported as 0.0294 KA relative to UGCAUGU.
In the case of B17, the binding signal is reported as 0.0187 KA relative to UGCAUGU.
B18 was tested, and the binding signal was 0.0152 KA relative to UGCAUGU.
B19 was tested, and the binding signal was 0.0148 KA relative to UGCAUGU.
In the case of B20, the binding signal is reported as 0.00855 KA relative to UGCAUGU.
With B21 the binding signal was 0.0106 KA relative to UGCAUGU.
In the case of B22, the binding signal is reported as 0.00225 KA relative to UGCAUGU.
B23 was tested, and the binding signal was 0.0276 KA relative to UGCAUGU.
In the case of B24, the binding signal is reported as 0.0263 KA relative to UGCAUGU.
With B25 the binding signal was 0.00492 KA relative to UGCAUGU.
In the case of B26, the binding signal is reported as 0.0236 KA relative to UGCAUGU.
In the case of B27, the binding signal is reported as 0.0111 KA relative to UGCAUGU.
In the case of B28, the binding signal is reported as 0.00441 KA relative to UGCAUGU.
In the case of B29, the binding signal is reported as 0.0145 KA relative to UGCAUGU.
B30 was tested, and the binding signal was 0.0193 KA relative to UGCAUGU.
In the case of B31, the binding signal is reported as 0.00342 KA relative to UGCAUGU.
